Results taken from PubChem BioAssay AID624418 (National Center for Advancing Translational Sciences (NCATS), 2012).
Screen size: about 410,000 compounds; about 530 (0.13%) were called active. The inconclusive results got no clear call from the source; some entries with a clear call stand among them for comparison. Calls follow the shape of the dose curve; as a rule, active = well fitted inhibition curve with a large enough effect; inconclusive = small, poorly fitted or top-dose-only effect, or another doubt; inactive = no such curve, though single readings can be large or run the other way. Potencies beside an inconclusive call are fits to weak or partial responses and may not hold up.

assay: qHTS of GLP-1 Receptor Inverse Agonists: Cytotox Screen; details: HEK293 cAMP-luciferase reporter cells, luminescence, 24 h; series mostly up to 38.3 µM
In short: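 Step one: seed cells (200 cells/uL, DMEM with 10% Nu serum, 1% pen-strep). Step two: 12-hour incubation at 37 deg C. Step three: pin 23 nL compound, incubate 24 hr. Step four: add luciferase reagent, read luminescence 12 min later.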
Potency is read from the fitted curve at half-maximal effect.

Row | SMILES | Potency
1 | COc1ccccc1-c1nnc(SCC(=O)NC2CCCCC2)n1C | inactive
2 | COc1cc([N+](=O)[O-])ccc1NC(=O)NCC1CCN(Cc2ccc(Cl)cc2)CC1 | inconclusive: 28.2 µM [inhibitor, single point]
3 | Oc1cccc(C2c3[nH]c4ccccc4c3CCN2Cc2ccoc2)c1 (stereo not drawn) | inactive
4 | COc1ccc(OC)c(CNS(=O)(=O)c2c(C(=O)N3CCC(C)CC3)c(C)n(C)c2C)c1 | inactive
5 | CCCc1c(C(=O)N/N=C/c2cccs2)nnn1-c1nonc1N | inactive
6 | COc1ccc(CNCCC(c2ccc(OC(C)C)cc2)c2ccccc2OC)cc1OC (stereo not drawn) | inconclusive: 28.2 µM [inhibitor, single point]
7 | O=C(/C=C/c1ccccc1)Nc1ccc(Br)cn1 | inconclusive: 2 µM [inhibitor, partial curve, poor fit]
8 | CC(=O)Nc1nc2ccccc2n1Cc1ccc(Cl)cc1 | inconclusive: 28.2 µM [inhibitor, single point]
9 | Cc1ccc(Oc2c(C(N)=O)cc([N+](=O)[O-])cc2[N+](=O)[O-])cc1 | inconclusive: 28.2 µM [inhibitor, single point]
10 | CCOc1ccc(NC(=O)CCSc2ccc(C)cc2)cc1 | inconclusive: 28.2 µM [inhibitor, single point]
11 | O=C(NNC(=O)c1cccnc1)Nc1cccc2ccccc12 | inactive
12 | CCOC(=O)Nc1ccc2c(c1)N(C(=O)CN1CCN(C)CC1)c1ccccc1S2 | inconclusive: 12.6 µM [inhibitor, partial curve, poor fit]
13 | O=C(CSc1ncccc1-c1nc2ccccc2[nH]1)NCc1ccco1 | inactive
14 | COc1ccc(C(O)Cn2c(=N)n(CCCN(C)C)c3ccccc32)cc1 (stereo not drawn) | inconclusive: 25.1 µM [inhibitor, single point]
15 | CCc1nnc(NC(=O)c2cc(Cl)ccn2)s1 | inconclusive: 22.4 µM [inhibitor, single point]
16 | COc1ccc(-c2nc3c(c(SCC(=O)N4CCCCC4)n2)Cc2c(CO)cnc(C)c2O3)cc1 | inactive
17 | CC(=O)N1CCC2(CC1)C/C(=N\NC(=S)Nc1ccccc1F)c1cc(O)ccc1O2 | inconclusive: 10 µM [inhibitor, partial curve]
18 | O=C1C(=O)c2ccc(-c3ccccc3)cc2-c2ccccc21 | inconclusive: 3.98 µM [inhibitor, full curve, poor fit]
19 | C=CC[n+]1ccc(/C=C2\C=Cc3cc(C)ccc3N2CC)c2ccccc21 | inconclusive: 5.01 µM [inhibitor, partial curve]
20 | Cc1c(N2C(=O)/C(=C/C3CC=CCC3)SC2=S)c(=O)n(-c2ccccc2)n1C (stereo not drawn) | inconclusive: 15.8 µM [inhibitor, single point]
21 | O=C(O)c1ccccc1Nc1cc(Cl)c2nonc2c1[N+](=O)[O-] | inconclusive: 14.1 µM [inhibitor, partial curve, poor fit]
22 | CS(=O)(=O)c1nc(-c2ccccc2)cc(C(F)(F)F)n1 | inconclusive: 7.08 µM [inhibitor, partial curve, poor fit]

Row | SMILES | Potency
23 | COc1ccc(/C=N/NC(=O)c2cc3c(ccc4ccccc43)o2)cc1OC | inactive
24 | CC(Oc1ccc(Br)cc1)C(=O)Nc1cc(Cl)ccc1N1CCN(C)CC1 (stereo not drawn) | inconclusive: 20 µM [inhibitor, single point]
25 | O=C(O)CN1C(=O)C=CC1=O | inactive
26 | C=CCNC(=S)NN=C1CCCCCCC1 | inconclusive: 3.55 µM [inhibitor, full curve, poor fit]
27 | Cn1c2ccccc2c2nnc(SCC(=O)Nc3cccc(C(=O)O)c3)nc21 | inactive
28 | OC(COc1ccc(Cl)cc1Cl)CN1CCc2ccccc2C1 (stereo not drawn) | inconclusive: 28.2 µM [inhibitor, single point]
29 | COc1ccc(CNCc2ccc(OC)c3ccccc23)cc1 | inactive
30 | CN(C)c1ccc(Cc2cc3c(O)ccc(O)c3cc(Cc3ccc(N(C)C)cc3)c2=O)cc1 | inconclusive: 28.2 µM [inhibitor, single point]
31 | CN(CCO)c1cc(N2CCN(C(=O)c3ccco3)CC2)c2nonc2c1[N+](=O)[O-] | inconclusive: 14.1 µM [inhibitor, partial curve, poor fit]
32 | NNC(=S)NCc1ccccc1 | inconclusive: 28.2 µM [inhibitor, single point]
33 | O=C(CSc1ccsc1[N+](=O)[O-])N1CCN(c2ccccc2)CC1 | inconclusive: 14.1 µM [inhibitor, single point]
34 | CCOc1ccc(NC(=S)NC(=O)/C=C/c2ccc(C)cc2)c([N+](=O)[O-])c1 | inconclusive: 12.6 µM [inhibitor, single point]
35 | Cc1ccccc1NC(=S)N=Nc1c(O)n(C)c2ccc(S(=O)(=O)N3CCOCC3)cc12 | inconclusive: 0.891 µM [inhibitor, full curve, poor fit]
36 | Cn1cc(Cc2ccccc2)c(=O)c(Cc2ccccc2)c1 | inconclusive: 7.94 µM [inhibitor, partial curve, poor fit]
37 | O=C(NCc1ccccn1)c1ccc(Cl)s1 | inconclusive: 31.6 µM [inhibitor, single point]
38 | COc1cc(C(=O)N/N=C/c2ccc(OC(=O)c3cccc(C)c3)cc2)ccc1O | inconclusive: 11.2 µM [inhibitor, single point]
39 | O=C(CCl)N(c1ccccc1)C1CCCCC1 | inconclusive: 7.94 µM [inhibitor, partial curve, poor fit]
40 | COc1ccccc1CN1CCC(CNC(=O)c2cnn(-c3ccc(Cl)cc3)c2C2CCN(C(=O)OC(C)(C)C)CC2)CC1 | inconclusive: 22.4 µM [inhibitor, single point]
41 | Cc1ccc(N=C2NC(=O)/C(=C/c3cccn3C)S2)cc1C | inconclusive: 28.2 µM [inhibitor, partial curve, poor fit]
42 | CCc1ccc(-c2cc(C)no2)cc1S(=O)(=O)N1CCN(c2ccccc2OC)CC1 | inactive
43 | Cc1ccc(N=Nc2c(C)[nH][nH]c2=O)c(C)c1 | inconclusive: 11.2 µM [inhibitor, partial curve, poor fit]
